Experimental data: PMC3962387 (2014)

Biological target: Amyloid-beta 1-42 oligomers 1-42 (Homo sapiens, UniProt P05067)
Assay: fluorescence cell-binding assay (AβOs-FITC on EphA4-Flag HEK293 cells)

Kd: 22 µM
B1: EphA4 (protein)
chain: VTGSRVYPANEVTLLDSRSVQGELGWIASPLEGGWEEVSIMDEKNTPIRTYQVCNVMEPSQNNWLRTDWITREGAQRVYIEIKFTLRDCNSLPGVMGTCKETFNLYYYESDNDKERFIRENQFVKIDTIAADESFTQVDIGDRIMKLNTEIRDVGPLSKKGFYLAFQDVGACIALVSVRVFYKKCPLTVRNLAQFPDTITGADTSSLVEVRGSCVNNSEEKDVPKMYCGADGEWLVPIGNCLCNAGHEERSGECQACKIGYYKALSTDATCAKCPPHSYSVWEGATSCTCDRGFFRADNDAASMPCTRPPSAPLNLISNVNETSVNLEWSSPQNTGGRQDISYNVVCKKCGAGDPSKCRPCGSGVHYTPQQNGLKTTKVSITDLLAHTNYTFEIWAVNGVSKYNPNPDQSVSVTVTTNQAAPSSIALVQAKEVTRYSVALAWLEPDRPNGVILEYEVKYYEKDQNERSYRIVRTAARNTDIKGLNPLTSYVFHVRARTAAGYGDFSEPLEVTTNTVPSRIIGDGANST
